Source: PubChem BioAssay AID686971 (National Center for Advancing Translational Sciences (NCATS), 2013)
Screen size: about 360,000 compounds; about 7,500 (2.1%) were called active. The shares of active, inactive and inconclusive entries below differ from those in the screen. The call rests on the fitted dose curve; in most records, active means well fitted cell-killing curve with a large enough effect; inconclusive means small, poorly fitted or top-dose-only effect, or effect the other way, or another doubt; inactive means no such curve, though single readings can be large or run the other way. No potency is given beside an inconclusive call; the fits are too rough.

experiment: qHTS for induction of synthetic lethality in tumor cells producing 2HG: qHTS for the HT-1080-IDH1KD cell line; conditions: HT-1080 IDH1 knockdown viability, ATP luminescence, 48 h; activity, negative = toxicity: at 46.1 µM (top of the series) unless noted;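 on activity, negative = toxicity: 0% = DMSO wells and -100% = cell-free medium wells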
Method in brief: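 IDH1KD HT-1080 cells, 750/well, RPMI + 5% FBS; compound pinned after 2 h settling; 48 h, 37 °C; CellTiter-Glo luminescence; % activity normalised to DMSO and no-cell wells; curves fitted, classed by r2 and efficacy.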
Potency means the concentration at half of the fitted maximal effect; tags describe the fitted curve by direction and shape.

Row | SMILES | Potency | activity, negative = toxicity
1 | CCOc1ccc(CCN2C(=O)C(=O)N([C@@H](Cc3ccccc3)CN3CCC[C@H]3CN3C(=O)C(=O)NC[C@@H]3Cc3ccc(O)cc3)C[C@@H]2CC(C)C)cc1 | inconclusive [cytotoxic, single point] | –
2 | CCOC(=O)C1=CCN(S(=O)(=O)c2ccccc2Br)C1c1cccc(Cl)c1 (configuration not stated) | inconclusive [cytotoxic, single point] | –
3 | COc1ccc(-c2nc(C(=O)NCC3CCCO3)cc3c2[nH]c2ccccc23)cc1 (configuration not stated) | – | inactive: -27.9%
4 | CCCN(C(=O)c1cccc(-n2cccc2)c1)c1c(N)n(Cc2ccccc2)c(=O)[nH]c1=O | – | inactive: -8.68%
5 | CC1CCCCC1NC(=O)CN1C(=O)c2cccc(N)c2C1=O (configuration not stated) | – | inactive: 11.1%
6 | COc1ccc(Cl)cc1NC(=O)CN(C)CC(=O)Nc1ccccc1N1CCOCC1 | active: 1.16 µM | –
7 | Cc1cccc(NC(=O)/C=C/c2ccc(Cl)cc2)n1 | inconclusive [cytotoxic, single point] | –
8 | CC1=CC(C)(C)Nc2ccc(OC(=O)c3ccco3)cc21 | inconclusive [cytotoxic, partial curve, poor fit] | –
9 | Cc1cc(C)c(S(=O)(=O)/N=C2/C=C(Sc3ncn[nH]3)C(=O)c3ccccc32)cc1C | active: 4.61 µM | –
10 | O=C(CCS(=O)(=O)Cc1ccccc1)Nc1nc2c(s1)CCCC2 | active: 8.91 µM | –
11 | CCOc1ccc(/C=N/NC(=O)c2ccccc2O)cc1CN1CC2CC(C1)c1cccc(=O)n1C2 (configuration not stated) | inconclusive [cytotoxic, single point] | –
12 | O=C(CSC1=NNC(c2ccccn2)S1)Nc1ccccc1 (configuration not stated) | inconclusive [cytotoxic, partial curve] | –
13 | CCc1ccc(OCC(=O)Nc2ccc(N3CCN(C(=O)c4ccccc4)CC3)cc2)cc1 | – | inactive: 24.3%
14 | COc1ccccc1C(=O)NCCC(=O)Nc1ccc(OC(F)(F)F)cc1 | – | inactive: -11%
15 | CCOC(=O)Cn1c(CN2CCc3ccccc3C2)nc2c1c(=O)n(C)c(=O)n2C | – | inactive: 1.55%
16 | COc1ccc(-c2nc3cc(C)c(Br)c(C)n3c2CC2CCCCC2)cc1OC | inconclusive [cytotoxic, single point] | –
17 | O=C1Nc2c(Cl)cccc2C1=O | inconclusive [cytotoxic, partial curve] | –
18 | Cc1ccc(NC(=O)CN(C)C(=O)COc2ccccc2-c2ccccc2)cc1 | inconclusive [cytotoxic, partial curve] | –
19 | CCOc1cc2[nH]c(=O)n(CCC(=O)NCCc3ccc(OC)c(OC)c3)c(=O)c2cc1OCC | – | inconclusive: -31.7% [cytotoxic]
20 | NC(=NC(=O)c1ccc(OCC(F)(F)F)nc1)c1ccccc1 | – | inactive: -1.83%
21 | O=[N+]([O-])c1cc(CN2CCCC2)ccc1Sc1ccc(Cl)cc1 | inconclusive [cytotoxic, single point] | –
22 | COc1ccc(C(=O)Nc2ccc3oc(-c4cccc(Cl)c4)cc(=O)c3c2O)cc1 | inconclusive [cytotoxic, single point] | –
23 | CC1(c2nnnn2Cc2ccccc2)CCC(=O)N1Cc1ccco1 (configuration not stated) | – | inactive: 3.81%
24 | CCOC(=O)C1(Cc2cccc(OC)c2)CCN(Cc2ccccc2OC)CC1 | inconclusive [cytotoxic, single point] | –

Row | SMILES | Potency | activity, negative = toxicity
25 | CCCCc1ccccc1NC(=S)NC1CCCC1 | – | inactive: -11.7%
26 | COCCn1c(=O)[nH]c2cc(C(=O)NCCN3CCN(c4ccccc4)CC3)ccc2c1=O | – | inactive: 0.36%
27 | O=C(CN(C(=O)c1ccc(Cl)cc1)C1CCCCC1)Nc1ccc(Cl)c([N+](=O)[O-])c1 | inconclusive [cytotoxic, single point] | –
28 | CCOc1ccc(S(=O)(=O)N2CCCC2)c2ccccc12 | – | inactive: -19.9%
29 | COc1ccc(-c2nc3ccc(Br)cn3c2Cc2cccc(Cl)c2)cc1OC | inconclusive [cytotoxic, single point] | –
30 | COc1cccc(NC(=O)c2ccc(NCCCN3CC(C)CC(C)C3)c([N+](=O)[O-])c2)c1 (configuration not stated) | inconclusive [cytotoxic, single point] | –
31 | O=C(CSc1nc2ccc([N+](=O)[O-])cc2[nH]1)NC1CCCCCC1 | inconclusive [cytotoxic, partial curve] | –
32 | Cc1cc(C(=O)N/N=C\C(Br)=C\c2ccccc2)c(C)o1 | inconclusive [cytotoxic, single point] | –
33 | CC(c1nc2ccccc2[nH]1)n1c(=O)c(-c2cccnc2)nc2ccccc21 (configuration not stated) | – | inactive: 24.6%
34 | CCCCCCCCN1C(=O)[C@H](CC(=O)NCc2ccc(C)o2)C[C@@]2(C(=O)OC)CC(C)(C)CC=C12 | inconclusive [cytotoxic, single point] | –
35 | CCCCC(=O)NC(c1ccc(Cl)cc1)c1ccc2cccnc2c1O (configuration not stated) | inconclusive [cytotoxic, full curve] | –
36 | COc1ccc(-c2sc3cc(OC)ccc3c2-c2ccc(OCCN3CCCCC3)cc2)cc1 | active: 16.4 µM | –
37 | COc1ccccc1-c1cc(C(=O)NC2CCN(C)CC2)c2ccc(Cl)c(C)c2n1 | inconclusive [cytotoxic, single point] | –
38 | Cc1cccc(NC(=O)c2ccc(COc3ccccc3[N+](=O)[O-])o2)n1 | inconclusive [cytotoxic, single point] | –
39 | Cn1c(N=Nc2ccccc2)nc2ccccc21 | active: 10.3 µM | –
40 | Cc1ccc(C(=O)Nc2nc3ccccc3s2)s1 | inconclusive [cytotoxic, single point] | –
41 | Cc1ccc(C(=O)N/N=C\c2cccc(OC(=O)c3cccc(F)c3)c2)cn1 | inconclusive [cytotoxic, single point] | –
42 | O=C1C=CCC(/C=C/c2ccccc2)O1 (configuration not stated) | inconclusive [cytotoxic, partial curve] | –
43 | CC1CCCN(CCCOc2ccc(Br)cc2Cl)C1 (configuration not stated) | active: 20.6 µM | –
44 | CC1CN(c2nc3c(c(=O)n(Cc4ccc(Cl)c(Cl)c4)c(=O)n3C)n2C)CC(C)O1 (configuration not stated) | – | inactive: -16.5%
45 | O=C(NCCc1c[nH]c2ccccc12)c1ccc([N+](=O)[O-])o1 | inconclusive [cytotoxic, partial curve] | –
46 | CN(C)c1ccc(C=Cc2ccnc3ccccc23)cc1N | inconclusive [cytotoxic, single point] | –
47 | CC(C)CN1CCC(=O)N([C@H](COc2ccccc2)c2ccccc2)CC1 | – | inactive: -0.291%
48 | CCc1ccc(-c2nc(CS(=O)CC(=O)NCCN3CCCCCC3)c(C)o2)cc1 (configuration not stated) | inconclusive [cytotoxic, single point] | –

Row | SMILES | Potency | activity, negative = toxicity
49 | N=c1c2c(ncn1Cc1ccco1)Oc1ccc3ccccc3c1C2c1ccccc1 (configuration not stated) | active: 23.1 µM | –
50 | COc1ccc2[nH]c(=O)c(CNc3cccc(C)c3)cc2c1 | – | inactive: -13.2%
51 | COc1cc(/C=C2\SC(=N)N(c3ccc(F)cc3)C2=O)ccc1O | inconclusive [cytotoxic, single point] | –
52 | Cc1ccc(Nc2nc(N)nc(CN3CCN(Cc4ccc5c(c4)OCO5)CC3)n2)c(C)c1 | – | inactive: -1.62%
53 | COc1ccc(C(c2nnnn2C2CCCC2)N2CCN(C/C=C/c3ccccc3)CC2)cc1 (configuration not stated) | inconclusive [cytotoxic, single point] | –
54 | COCCc1ncc(CN2CCCC(C(=O)Nc3cccc(-c4cccc(C)c4)c3)C2)cn1 (configuration not stated) | inconclusive [cytotoxic, partial curve] | –
55 | C=CCOc1ccc2nc(NC(=O)OC)[nH]c2c1 | active: 1.84 µM | –
56 | O=C(Cn1nnc(-c2ccc(Cl)cc2)n1)NC(=O)NC1CCCC1 | – | inactive: 20.9%
57 | C[C@@H]1CN([C@H](C)CO)C(=O)CCCn2cc(nn2)CO[C@H]1CN(C)S(=O)(=O)c1ccc2ccccc2c1 | – | inactive: -0.935%
58 | O=C(NNC(=O)c1ccccc1O)c1ccc(Cl)c(S(=O)(=O)N2CCCCC2)c1 | – | inactive: -18.7%
59 | c1ccc(CCc2nn3c(Cc4ccccc4)nnc3s2)cc1 | inconclusive [cytotoxic, single point] | –
60 | O=C1c2ccccc2C(=O)N1CCOCCN1C(=O)c2ccccc2C1=O | – | inactive: 12.4%
61 | O=C(NCCOc1nc(N2CCOCC2)nc(N2CCOCC2)n1)Nc1ccccc1 | – | inactive: -24.7%
62 | CC(=O)Oc1c(C)c2c3c(c1OC(C)=O)[C@@H](C)CC[C@@H]3[C@@H](C)C[C@H]2C=C(C)C | – | inactive: -9.05%
63 | O=C(NCc1ccco1)c1sc(=S)n2c1[nH]c(=O)c1ccccc12 | inconclusive [cytotoxic, single point] | –
64 | Cc1cc(NC(=O)COC(=O)C(Nc2ccc(C(F)(F)F)cc2Cl)C(C)C)no1 (configuration not stated) | inconclusive [cytotoxic, single point] | –
65 | Cc1ccccc1OCCNC(=O)CSc1ccc(C(F)(F)F)cc1[N+](=O)[O-] | – | inactive: -4.2%
66 | NC(Cc1ccc(Cl)cc1)c1csc(Nc2ccc(C(=O)NCCCO)cn2)n1 (configuration not stated) | inconclusive [cytotoxic, single point] | –
67 | NC(=O)c1c(NC(=O)CN2C(=O)NC(Cc3ccccc3)C2=O)sc2c1CCC2 (configuration not stated) | – | inactive: -11.4%
68 | Cc1cc(C)c(C(=O)N2CCCC(N3CCN(c4cccc(C(F)(F)F)c4)CC3)C2)o1 (configuration not stated) | inconclusive [cytotoxic, single point] | –
69 | Cc1ccc2c(c1)c1c(n2CC(O)Cn2c(C)nc3ccccc32)/C(=N\O)CCC1 (configuration not stated) | inconclusive [cytotoxic, single point] | –
70 | CCn1c2ccccc2c2cc(/C=N/NC(=O)c3cccc(C)c3)ccc21 | inconclusive [cytotoxic, single point] | –
71 | O=C(NCC(=O)N1CCN(Cc2c(F)cccc2Cl)CC1)c1cccs1 | – | inactive: -7.38%
72 | O=C(CN1CCN(c2cnn(-c3ccccc3)c(=O)c2Cl)CC1)NC1CCS(=O)(=O)C1 (configuration not stated) | – | inactive: 18.1%
